Laboratory results from PubChem BioAssay AID720707 (National Center for Advancing Translational Sciences (NCATS), 2013).
In all, about 360,000 compounds went through this assay and about 270 (0.075%) were called active. Inconclusive results, whose numbers are uncertain, are shown with a selection of clear calls. Calls follow the shape of the dose curve; as a rule, active = well fitted activation curve with a large enough effect; inconclusive = small, poorly fitted or top-dose-only effect; inactive = no such curve, though single readings can be large or run the other way. Potencies of inconclusive entries are left out as doubtful fits.

target: Rap guanine nucleotide exchange factor 3 (Homo sapiens) (UniProt O95398); assay: qHTS for Agonist of cAMP-regulated guanine nucleotide exchange factor 3 (EPAC1): primary screen; conditions: biochemical assay; series mostly up to 154 µM; also: nearly all actives have a fitted effect of over 60% in size
Outline: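 Normalized to 6.5 mM cAMP, activity reflects EPAC1-catalysed release of BODIPY-GDP from Rap1B, followed kinetically over 30 min at 480 nm excitation, 540 nm emission. Reaction contained 100 nM EPAC1, 250 nM Rap1B-BODIPY-GDP, 50 uM GDP.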
Potency is read from the fitted curve at half-maximal effect; tags tell the direction and shape of the fitted curve.

Chain of UniProt O95398 (O95398 whole entry, looked up): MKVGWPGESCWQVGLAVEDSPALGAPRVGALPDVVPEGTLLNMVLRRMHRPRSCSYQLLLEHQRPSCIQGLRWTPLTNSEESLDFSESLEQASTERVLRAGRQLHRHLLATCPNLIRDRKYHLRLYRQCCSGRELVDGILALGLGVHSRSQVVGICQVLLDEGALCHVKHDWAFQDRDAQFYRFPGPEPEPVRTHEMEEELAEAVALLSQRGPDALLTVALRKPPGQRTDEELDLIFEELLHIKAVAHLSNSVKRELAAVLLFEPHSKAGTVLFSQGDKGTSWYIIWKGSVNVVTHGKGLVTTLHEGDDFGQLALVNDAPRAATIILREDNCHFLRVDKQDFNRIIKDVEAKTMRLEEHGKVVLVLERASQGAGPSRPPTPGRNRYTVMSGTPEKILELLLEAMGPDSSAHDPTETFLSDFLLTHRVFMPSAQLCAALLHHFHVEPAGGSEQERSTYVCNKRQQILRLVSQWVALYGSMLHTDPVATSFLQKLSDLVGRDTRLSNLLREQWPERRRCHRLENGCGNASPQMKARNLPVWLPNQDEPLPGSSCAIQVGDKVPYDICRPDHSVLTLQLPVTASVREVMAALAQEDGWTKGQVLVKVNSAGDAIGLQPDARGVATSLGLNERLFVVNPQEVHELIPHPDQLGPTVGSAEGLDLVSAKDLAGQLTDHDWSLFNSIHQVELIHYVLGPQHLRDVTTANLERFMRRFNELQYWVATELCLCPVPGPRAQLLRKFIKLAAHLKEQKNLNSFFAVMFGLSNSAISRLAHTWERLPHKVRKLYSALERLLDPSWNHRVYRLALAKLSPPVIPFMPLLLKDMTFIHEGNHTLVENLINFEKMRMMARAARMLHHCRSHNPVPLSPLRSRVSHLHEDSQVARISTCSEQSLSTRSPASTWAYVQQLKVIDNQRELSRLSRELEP

SMILES | Potency
O=C(CSC1=NS(=O)(=O)c2cc(F)ccc2N1)NCc1ccccc1Cl | inconclusive [activator, partial curve, poor fit]
CCOC(=O)c1c(NC(=O)CSc2nc3ccc(C)cc3[nH]2)sc2c1CC(C)(C)NC2(C)C | inconclusive [activator, single point]
CN1c2ccccc2C(C)(C)C12C=Cc1cc(O)ccc1O2 (centres undefined) | inconclusive [activator, partial curve]
O=C1CC(=O)CC(c2ccccc2)C1 | inactive
Oc1oc(-c2ccccc2)nc1C=Nc1cccc2ccccc12 | inconclusive [activator, single point]
CCOc1cc(C2C(C#N)=C(N)OC(C)=C2C(C)=O)cc(Br)c1O (centres undefined) | inconclusive [activator, partial curve]
COc1ccc(-c2nnc(NC(=O)c3ccc(S(=O)(=O)N(C)CC4CCCO4)cc3)o2)c(OC)c1 (centres undefined) | inconclusive [activator, partial curve]
O=C(CSc1ccc(Cl)cc1)N1CCN(c2ccc([N+](=O)[O-])cc2Cl)CC1 | inactive
CCCN(CC(=O)Nc1ccccc1C)C(=O)c1oc2ccc(OCC)cc2c1C | active: 126 µM
N=c1oc2c3c4c(cc2cc1C(=O)Nc1ccccc1)CCCN4CCC3 | inconclusive [activator, partial curve, poor fit]
O=C(/C=C/c1ccccc1)CC(O)(c1ccccc1)C(F)(F)C(F)F (centres undefined) | inconclusive [activator, partial curve]
CCCCN(C)C1=CC2=CC(=C(C#N)C#N)CCC2CC1 (centres undefined) | inconclusive [activator, partial curve, poor fit]
Cc1ccc(-c2cc(-c3ccccc3Cl)[nH]n2)c(O)c1 | inconclusive [activator, single point]
CCc1nnc(NC(=O)CSc2nc(N)c(NC(=O)c3ccc(OC)cc3)c(=O)[nH]2)s1 | inconclusive [activator, single point]
O=S(=O)(Nc1cccc(-n2cnnn2)c1)c1ccccc1C(F)(F)F | inactive
C=CCN(C(=O)c1csnn1)C(C(=O)NCc1ccc(F)cc1)c1cccs1 (centres undefined) | inactive
Cc1c(C(=O)OCC(=O)N2CCC(C)CC2)oc2ccccc12 | inconclusive [activator, single point]
CC(Sc1nc2ccccc2c(=O)n1CC1CCCO1)C(=O)NC(C)c1ccccc1 (centres undefined) | inconclusive [activator, single point]
O=C(CN1CCC(n2nnc3cc(C(F)(F)F)ccc32)CC1)Nc1ccc2c(c1)CCC2 | inactive
COc1ccccc1/C=C/CN1CCCC(CO)(Cc2cccc(Cl)c2)C1 (centres undefined) | inactive
Cc1cccc(NC(=O)Cc2c(F)cccc2Cl)n1 | inactive
NC(=O)CSc1nnc(-c2cccs2)n1Cc1ccco1 | inactive
Cc1ccc(C2CC(=O)N3CN(c4ccc(Br)cc4)CSC3=C2C#N)o1 (centres undefined) | inactive

SMILES | Potency
CN1C=CC2=C(C#N)C(N)C(C#N)(C#N)C(c3ccccc3)C2C1 (centres undefined) | inconclusive [activator, partial curve]
COC(=O)c1ccc(Sc2ccc(Cl)cc2)c(N)c1 | inconclusive [activator, partial curve]
OCC[n+]1ccc(/C=C/c2c[nH]c3ccccc23)cc1 | inconclusive [activator, single point]
CNC(=O)c1c(NC(=O)C2=COCCO2)sc(C)c1C | inconclusive [activator, single point]
O=C1CCC(C(=O)Nc2ccccc2N2CCCC2)=NN1 | inconclusive [activator, single point]
CCCOc1cc(N(CC)CC)ccc1/C=C(/C#N)c1nc2ccc(C)cc2[nH]1 | inconclusive [activator, single point]
CN(C)c1ccc(C=Cc2nccc3ccccc23)cc1 | inconclusive [activator, partial curve]
O=C(CN1C(=O)NC2(CCCCC2)C1=O)Nc1cc(C(F)(F)F)ccc1N1CCOCC1 | inconclusive [activator, partial curve, poor fit]
COc1cccc(C(=O)OCC(=O)NC2CCCc3ccccc32)c1O (centres undefined) | inconclusive [activator, partial curve]
COc1ccc(NS(=O)(=O)c2ccc3c(c2)Cc2ccccc2-3)cn1 | inconclusive [activator, single point]
O=C(C(=Cc1ccc(O)cc1)c1ccccc1)c1ccccc1 | inconclusive [activator, full curve, poor fit]
C=CCN(C(=O)C1CC(=O)N(C2CCCC2)C1)c1nc(-c2ccc(S(C)(=O)=O)cc2)cs1 (centres undefined) | inactive
Cc1ccc(C)c(NC(=O)CN(C)C(=O)c2ccccc2Cc2ccccc2)c1 | inconclusive [activator, single point]
Nc1ccc2c3c(cccc13)C(=O)N(c1ccccc1)C2=O | active: 100 µM
O=C(CSc1nc2ccsc2c(=O)n1CC1CCC(C(=O)O)CC1)c1ccc(Cl)cc1 (centres undefined) | inconclusive [activator, partial curve]
Cc1ccc(CNC(=O)c2cccc3c2C(=O)c2ccc(N4CCCCC4)cc2S3(=O)=O)cc1 | active: 10 µM
CCCCCNC(=O)C(C#N)c1nc2ccccc2nc1N1CCCC1 (centres undefined) | inconclusive [activator, single point]
COc1ccc(N2C(=O)c3ccccc3NC2c2ccc(OC)c(COc3ccccn3)c2)cc1 (centres undefined) | inactive
Cc1cc(/C=C2\SC(=S)N(C)C2=O)c(C)n1-c1ccccc1O | inconclusive [activator, partial curve]
Cc1ccc(NC(=O)CCC(=O)c2cccs2)nc1 | inconclusive [activator, single point]
COc1ccc(C(=O)c2sc3nc(C)cc(-c4cccs4)c3c2N)cc1OC | inconclusive [activator, partial curve]
OCCC1CN(C2CCC2)CCN1Cc1ccc(F)c(F)c1 (centres undefined) | inactive
COc1ccc(NC(=O)CN(C)C(=O)c2cn(-c3ccccc3)nc2-c2cccnc2)cc1 | inconclusive [activator, full curve, poor fit]

SMILES | Potency
CCN(Cc1ccccc1)S(=O)(=O)c1cc2c3c(c1)CCN3C(=O)CC2 | inconclusive [activator, partial curve, poor fit]
N#C/C(=C\c1cn[nH]c1-c1ccccc1)C(=O)NC1CCCCCC1 | inconclusive [activator, partial curve]
CCOC(=O)C1=C(C)NC(C)=C(C(=O)OCC)C1 | inconclusive [activator, partial curve]
CNC(=O)CSc1nnc(NC(=O)C2CC(=O)N(c3ccccc3OC)C2)s1 (centres undefined) | inconclusive [activator, single point]
COc1cc(/C=C2\CCn3c2nc2cc(C(=O)O)ccc2c3=O)ccc1OC(F)F | inconclusive [activator, single point]
NC(=O)C1CCN(C(=O)CSc2nc3ccccc3[nH]2)CC1 | inactive
CCn1c(CC(=O)Nc2ccc(F)cc2)nnc1SCC(=O)N1CCOCC1 | inconclusive [activator, single point]
CSc1ccc(C2C(C#N)=C(N)Oc3cc4c(cc32)OCO4)cc1 (centres undefined) | inconclusive [activator, partial curve]
O=C1CNc2ccc(C(=O)N3CCN(c4ccccn4)CC3)cc2N1 | inactive
CN(CC(=O)Nc1ccc(Cl)c(C(F)(F)F)c1)C(=O)c1ccc2c(c1)OCCO2 | active: 79.4 µM
COc1cccc(C(=O)NCCS(=O)(=O)N2CCc3ccccc3C2)c1 | inconclusive [activator, partial curve]
CCc1cccc(CC)c1N1C(=O)C2=C(SCCCS2)C1=O | active: 100 µM
Cc1nnc(SCc2ccccc2)nc1-c1ccccc1 | inactive
C/C(=N/NC(=O)c1cccc(N2CCCC2=O)c1)c1ccncc1 | inactive
COc1ccc(C(C)(C)C)cc1NC(=O)Nc1ccc2c(c1)OCO2 | inconclusive [activator, partial curve, poor fit]
CN(C)c1ccc(/C=C/c2ccc3ccccc3n2)cc1 | inconclusive [activator, partial curve]
COc1ccc(/C=C/c2cc(C(=O)O)c3ccccc3n2)cc1 | inconclusive [activator, single point]
Cc1ccc(C)c(S(=O)(=O)N2CCN(C(=O)CCc3nc4ccccc4c(=O)[nH]3)CC2)c1 | inconclusive [activator, single point]
Cc1ccc(C(=O)O)cc1-c1ccc(/C=C2\SC(=O)N(CC(=O)Nc3ccc4c(c3)OCO4)C2=O)o1 | inconclusive [activator, partial curve]
COc1c(F)c(F)c(C(=O)Nc2cccc(Cl)c2N2CCOCC2)c(F)c1F | inactive
Cc1c(C(=O)Nc2ccc(S(=O)(=O)N(C)C3CCN(C)CC3)cc2)oc2c(Cl)cccc12 | inconclusive [activator, full curve, poor fit]
CNc1ccc2c3c(cccc13)C(=O)N(C)C2=O | active: 100 µM
COc1ccc(/C=C2/C(=O)N(c3nc4ccccc4s3)N=C2CSc2ccc(Cl)cc2)cc1 | inactive
